For this series, the system named is ATP. Description: switch fluorescence ratio, 500 uM ATP over buffer (Cy3 cluster intensity, sum of 5 cycles each) (fold (ratio)); higher = stronger signal-on switching upon ATP binding; sequences stand for … in TCGTCGGCAGCGTCAGATGTGTATAAGAGACAGTTTTTTTTTTTTTTTTTTTTTTTTT…TC. The following applies: aptamer strand: ATP DNA aptamer (quencher-CACCTGGGGGAGTATTGCGGAGGAAGG + anchor), 100 nM annealed; ATP concentration: 500 uM; one replicate. In short, it runs like this:
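Imaging in selection buffer was followed by imaging after 15 min with 500 uM ATP at 22 °C, for Cy3-labelled switching-strand clusters annealed to 100 nM quencher-labelled ATP aptamer on a modified Illumina MiSeq flow-cell. Five of these buffer/ATP cycles ran, separated by NaOH stripping and re-annealing. The fluorescence ratio per cluster is summed target-cycle over summed buffer-cycle Cy3 intensity, averaged per switch-domain sequence; clusters outside 100-1000 RFU were removed.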

Sequences with one replicate were seen in a single cluster, so their values are uncertain.

Experimental findings from the supplement of paper PMC10126150 are described below.
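Further: ATP exposure 15 min at 22 °C before imaging.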

Regarding AAGCTTGTAC, the switch fluorescence ratio was 1.8.

Regarding GTGGTATTAC, the switch fluorescence ratio worked out at 1.03.

Turning to GCCGACGGAA, the switch fluorescence ratio is 3.83.

Consider ATTCGGAGAT, for which the switch fluorescence ratio came out at 0.965.

Regarding GGGCCATAGC, the switch fluorescence ratio stood at 0.984.

For the sequence GCGATTGTAG, the switch fluorescence ratio turned out to be 1.02.

As to TTGGTCACCC, the switch fluorescence ratio turned out to be 0.923.

With ATTAGGGATT, the switch fluorescence ratio is 0.976.

As for GATGGGAAGA, the switch fluorescence ratio is 1.01.

Take ATCCTGGACT: the switch fluorescence ratio is 1.

For the sequence GTGTTTTGCC, the switch fluorescence ratio stood at 1.02.

For TGAGAGTTGA, the switch fluorescence ratio came to 1.02.

Take TGTTTGCG: the switch fluorescence ratio amounted to 1.06.

As for TGGACAAGCG, the switch fluorescence ratio came out at 1.01.

In the case of AGGGGAGCTG, the switch fluorescence ratio was found to be 1.02.

Consider CGTGATGGT, for which the switch fluorescence ratio stood at 0.997.

Turning to CTGGATCTTG, the switch fluorescence ratio worked out at 0.974.

Take GCCAGTCTGT: the switch fluorescence ratio came out at 1.

With CGAATCACCC, the switch fluorescence ratio worked out at 1.08.

As for GGATTGACAT, the switch fluorescence ratio worked out at 1.03.

With ACTACCCCGC, the switch fluorescence ratio came to 2.01.

With ATCGATAGCG, the switch fluorescence ratio amounted to 0.95.

On to CGTCTCGGGA, for which the switch fluorescence ratio is 1.05.

With AGGGGGTCAA, the switch fluorescence ratio was 0.971.

In the case of GAGACAGTGT, the switch fluorescence ratio amounted to 1.02.

For TGTGTGAAA, the switch fluorescence ratio turned out to be 1.01.

In the case of TACGCGCAGA, the switch fluorescence ratio worked out at 1.04.

Consider TTAACTATAC, for which the switch fluorescence ratio was found to be 1.31.

For CGGCCTCCCA, the switch fluorescence ratio is 1.02.

As for GCGCGAGAGT, the switch fluorescence ratio came out at 1.1.

Consider ATAGGAAGAG, for which the switch fluorescence ratio was 0.985.

Take GCCGCATTAT: the switch fluorescence ratio amounted to 2.57.

For the sequence AGGGTACCTT, the switch fluorescence ratio worked out at 1.02.

Regarding GACTTCGTAG, the switch fluorescence ratio amounted to 0.965.

GAGAGCTCTC: the switch fluorescence ratio came out at 1.04.

Regarding TGTCGGGTTG, the switch fluorescence ratio amounted to 0.942.

Turning to CCATTTAAAT, the switch fluorescence ratio amounted to 1.01.

GGTCTTGTTA: the switch fluorescence ratio was determined as 0.969.

For ACCTCATTA, the switch fluorescence ratio came to 1.05.

As to CGGCTGATAA, the switch fluorescence ratio was found to be 1.02.

Regarding GCCTAACGGC, the switch fluorescence ratio stood at 0.992.

In the case of CGGTATCCGG, the switch fluorescence ratio amounted to 0.995.

With ACCGCGTGCT, the switch fluorescence ratio is 1.06.

As for CTTTTTTGAG, the switch fluorescence ratio stood at 0.975.

Take TGCTGTATGG: the switch fluorescence ratio stood at 1.02.

Take ATTCGCATAG: the switch fluorescence ratio was 2.1.

Turning to ATAAATTATA, the switch fluorescence ratio was determined as 1.02.

On to AGTAGGGGAT, for which the switch fluorescence ratio stood at 0.998.

For GGGGCTGGTG, the switch fluorescence ratio came to 0.992.

Regarding AATGTCGTGT, the switch fluorescence ratio worked out at 1.01.

For the sequence TCATTGGTCT, the switch fluorescence ratio is 1.

Take TAAAATCCAC: the switch fluorescence ratio amounted to 1.06.

On to TAACGAGT, for which the switch fluorescence ratio stood at 0.992.

With TAGTAGCATC, the switch fluorescence ratio was 1.11.

Consider ATAGAGACAC, for which the switch fluorescence ratio was 1.

TTACGATTAC: the switch fluorescence ratio amounted to 1.43.

For ACGATTTTCA, the switch fluorescence ratio was found to be 1.01.

Consider CGAGGGGGTC, for which the switch fluorescence ratio was 0.961.

With CGTGGCACTG, the switch fluorescence ratio stood at 1.01.

Take CAGTCGGG: the switch fluorescence ratio worked out at 1.05.

Take TACGCTCGAC: the switch fluorescence ratio amounted to 1.77.

Consider TTTAGTTTGA, for which the switch fluorescence ratio was found to be 0.958.

Regarding TTGAGAGCAT, the switch fluorescence ratio came out at 1.04.

Turning to TATACTTGAC, the switch fluorescence ratio stood at 1.16.

On to AGCAGATTAA, for which the switch fluorescence ratio was determined as 0.992.

As to TGCTCGTACA, the switch fluorescence ratio was 1.02.

In the case of TCAGCTTCGA, the switch fluorescence ratio turned out to be 1.01.

As for GCTTTGGAGA, the switch fluorescence ratio turned out to be 1.03.

For GCTTATCCA, the switch fluorescence ratio worked out at 0.963.

As to CTCCAGGAGC, the switch fluorescence ratio came out at 1.22.

TTTTTGCGGA: the switch fluorescence ratio amounted to 0.987.

As for TGACTACAAA, the switch fluorescence ratio was 1.

In the case of CACCGGTGGA, the switch fluorescence ratio was 1.01.

CGCCTGGGGA: the switch fluorescence ratio turned out to be 1.03.

Take GGCTCTGGTC: the switch fluorescence ratio was 1.

As to CAAGGTCTTG, the switch fluorescence ratio is 0.979.

On to ACACTTTACC, for which the switch fluorescence ratio turned out to be 1.43.

Take GGCTCTCGCC: the switch fluorescence ratio is 0.952.

TTCGCTTCGC: the switch fluorescence ratio worked out at 1.05.

As to CGAGATGGCT, the switch fluorescence ratio came to 0.991.

As to TTGAAGCTCC, the switch fluorescence ratio turned out to be 3.89.

Consider GGTGACTCGA, for which the switch fluorescence ratio worked out at 1.02.

Consider TCACCTGGG, for which the switch fluorescence ratio was 1.08.

As to GTCTAGTGGG, the switch fluorescence ratio is 1.01.

As to GAGAGTTAGC, the switch fluorescence ratio is 1.05.

Consider ATGAGTAGGC, for which the switch fluorescence ratio amounted to 1.13.

As to AGATGGTATA, the switch fluorescence ratio came out at 0.974.

As to CCTTAGATCC, the switch fluorescence ratio was 1.01.

Regarding CGTCCAAGCG, the switch fluorescence ratio was 1.07.

For GCCGATACGT, the switch fluorescence ratio turned out to be 1.04.

As for TACATTCGT, the switch fluorescence ratio stood at 1.07.

As to CGATGATA, the switch fluorescence ratio is 1.02.

Regarding GAAGGACTAG, the switch fluorescence ratio stood at 0.961.

For the sequence CGAAGTGATA, the switch fluorescence ratio amounted to 1.55.

Take GCACGCAGAT: the switch fluorescence ratio was determined as 1.15.

In the case of ATAGGTGGCT, the switch fluorescence ratio is 0.989.

Turning to CGAATGGTCA, the switch fluorescence ratio stood at 0.999.

In the case of ATATTACGCT, the switch fluorescence ratio was determined as 1.03.

In the case of ATCACCGTCC, the switch fluorescence ratio came to 1.82.

For CTTTCAAGGC, the switch fluorescence ratio was 1.21.

On to ATTTTATGGT, for which the switch fluorescence ratio was determined as 1.09.

For the sequence TCCTGTTCT, the switch fluorescence ratio was found to be 1.05.

On to GACGTGGTGC, for which the switch fluorescence ratio came to 1.2.

With AAAACGATGT, the switch fluorescence ratio was 1.02.

As to AGGAGAAATC, the switch fluorescence ratio was found to be 1.01.

Take GGGTGATCAG: the switch fluorescence ratio was found to be 0.97.

As to TACCGAACGG, the switch fluorescence ratio was found to be 1.04.

For TACCATACAA, the switch fluorescence ratio worked out at 1.26.

For the sequence GCCTTTCGAG, the switch fluorescence ratio was 1.38.

On to TTTAGGGCGT, for which the switch fluorescence ratio was 0.944.

On to TCTTTGTCAT, for which the switch fluorescence ratio was determined as 0.995.

With TGGCGCGCTC, the switch fluorescence ratio was 0.97.

With GGGGCGGACA, the switch fluorescence ratio was found to be 1.03.

With TCGCCTGTT, the switch fluorescence ratio was found to be 1.02.

TGTAGGTTTT: the switch fluorescence ratio turned out to be 1.02.

As for CTGACTTTTA, the switch fluorescence ratio was 1.08.

For ACCGTCCGAG, the switch fluorescence ratio was 3.11.

As for CAAAATATAC, the switch fluorescence ratio is 2.4.

GTAAACGGGG: the switch fluorescence ratio turned out to be 0.998.

Turning to CCGGAAGAGT, the switch fluorescence ratio came to 1.28.
